This is an account of results in a collection of fitness landscapes (doi:10.1126/science.1257360).

B1: PhoQ; a variant is named by its letters at X, in order, P23837 (parent)
chain: MKKLLRLFFPLSLRVRFLLATAAVVLVLSLAYGMVALIGYSVSFDKTTFRLLRGESNLFYTLAKWENNKLHVELPENIDKQSPTMTLIYDENGQLLWAQRDVPWLMKMIQPDWLKSNGFHEIEADVNDTSLLLSGDHSIQQQLQEVREDDDDAEMTHSVAVNVYPATSRMPKLTIVVVDTIPVELKSSYMVWSWFIYVLSANLLLVIPLLWVAAWWSLRPIEALAKEVRELEEHNRELLNPATTRELTSLVRNLNRLLKSERERYDKYRTTLTDLTHSLKTPLXXLQXXLRSLRSEKMSVSDAEPVMLEQISRISQQIGYYLHRASMRGGTLLSRELHPVAPLLDNLTSALNKVYQRKGVNISLDISPEISFVGEQNDFVEVMGNVLDNACKYCLEFVEISARQTDEHLYIVVEDDGPGIPLSKREVIFDRGQRVDTLRPGQGVGLAVAREITEQYEGKIVAGESMLGGARMEVIFGRQHSAPKDE

This is one part of the list.

In this assay the parent is B1. Kind of assay: enrichment ratio after two sorts for PhoP signalling (ratio (wild type AVST 3.29)); higher = more functional. To be noted: with PhoP (E. coli).
As to RVDI, the enrichment ratio was at most 0.25. The value for HPAI was at most 0.25; that for DYAF was at most 0.25.

On to QGAV, for which the enrichment ratio amounted to 7.22. With RFAG, the enrichment ratio was at most 0.25. With WMRT the figure was at most 0.25; with HRDG, at most 0.25; with LMGI, at most 0.25. With GSCM the figure was 7.32. In the case of TSMW, the enrichment ratio was at most 0.25. Regarding DTPA, the enrichment ratio is at most 0.25.

On to GAVP, for which the enrichment ratio was at most 0.25. The value for PWWS was at most 0.25; that for MLDQ was at most 0.25. Regarding TDTR, the enrichment ratio is at most 0.25. IRFP: the enrichment ratio was at most 0.25. VIPS: the enrichment ratio was at most 0.25.

As to KRMF, the enrichment ratio is at most 0.25. KFHK: the enrichment ratio was at most 0.25. For DMFV, the enrichment ratio is at most 0.25. With SHNY, the enrichment ratio stood at 8.62. Consider DQWH, for which the enrichment ratio is at most 0.25. On to TMYK, for which the enrichment ratio was at most 0.25. Consider VCLD, for which the enrichment ratio is at most 0.25. Consider NERS, for which the enrichment ratio was at most 0.25. Consider DLPA, for which the enrichment ratio is at most 0.25. In the case of RWLN, the enrichment ratio was at most 0.25.

Turning to MKLW, the enrichment ratio was at most 0.25. In the case of DYCW, the enrichment ratio was at most 0.25. The value for NFGK was at most 0.25; that for RLWL was 0.608; that for RDKD was at most 0.25.

On to FWVR, for which the enrichment ratio was at most 0.25. For the variant IKFW, the enrichment ratio was at most 0.25.

As to MHDS, the enrichment ratio is at most 0.25.

Regarding DHTS, the enrichment ratio was at most 0.25. On to IYMA, for which the enrichment ratio is at most 0.25.

ITLY: the enrichment ratio was at most 0.25.

Turning to SKAG, the enrichment ratio was at most 0.25.

Take VGFT: the enrichment ratio is at most 0.25.

As to YILV, the enrichment ratio was found to be 2.75. With SYEE, the enrichment ratio was at most 0.25. With TYRS, the enrichment ratio was at most 0.25. For the variant MSVH, the enrichment ratio came to 1.92. With HSVD, the enrichment ratio is at most 0.25. Turning to EAAE, the enrichment ratio was at most 0.25. The value for FENM was at most 0.25; that for TSMK was 5.55. With GVAV, the enrichment ratio is at most 0.25. Take KASL: the enrichment ratio was at most 0.25. Take ISPY: the enrichment ratio was at most 0.25. On to QHLF, for which the enrichment ratio is at most 0.25. RNNT: the enrichment ratio was at most 0.25. RKYR: the enrichment ratio was at most 0.25. Regarding FMTC, the enrichment ratio is at most 0.25. On to LECL, for which the enrichment ratio is at most 0.25. For KGLW, the enrichment ratio was at most 0.25.

As to LFTL, the enrichment ratio is at most 0.25. In the case of WIPQ, the enrichment ratio is at most 0.25. Take SFTI: the enrichment ratio was at most 0.25. Take RVDE: the enrichment ratio is at most 0.25.

On to AKDN, for which the enrichment ratio is at most 0.25. Take DNPF: the enrichment ratio was at most 0.25. For the variant YYLS, the enrichment ratio was at most 0.25.

As to RWTM, the enrichment ratio was at most 0.25.

For RNVP, the enrichment ratio is at most 0.25. For the variant LCCL, the enrichment ratio is at most 0.25. For the variant FNYP, the enrichment ratio was at most 0.25. As for ALTS, the enrichment ratio was 4.58.

In the case of FHQP, the enrichment ratio is at most 0.25. Take VYNK: the enrichment ratio was at most 0.25. With QIVQ the figure was at most 0.25; with QFSG, 2.84; with YNHS, at most 0.25. The value for IYAL was at most 0.25.

As for WRKH, the enrichment ratio is at most 0.25.

Turning to EKMP, the enrichment ratio was at most 0.25. As for TIMT, the enrichment ratio was found to be 5.04.

As to YDRF, the enrichment ratio is at most 0.25. On to NDRN, for which the enrichment ratio was at most 0.25. Turning to FLTK, the enrichment ratio is at most 0.25.

Consider IFVE, for which the enrichment ratio is at most 0.25. In the case of SGQQ, the enrichment ratio turned out to be 2.62.

Turning to NEEV, the enrichment ratio was at most 0.25. In the case of SSCY, the enrichment ratio is 9.57. Take GDIS: the enrichment ratio is at most 0.25. Consider FHLN, for which the enrichment ratio was at most 0.25.

For IAGQ, the enrichment ratio is at most 0.25. SCLE: the enrichment ratio was 0.563. With QLMG the figure was at most 0.25; with FDMA, at most 0.25; with IQNN, at most 0.25. Take QLDA: the enrichment ratio was at most 0.25. With ERIE the figure was at most 0.25; with VSWI, 1.37; with LKGK, at most 0.25. For the variant MRMI, the enrichment ratio is at most 0.25. On to YCMW, for which the enrichment ratio is at most 0.25.

IHWN: the enrichment ratio is at most 0.25. As for YNTV, the enrichment ratio was at most 0.25. As to KRWQ, the enrichment ratio was at most 0.25.

For the variant KLYD, the enrichment ratio was at most 0.25.

For KWSY, the enrichment ratio is at most 0.25. With VVRS, the enrichment ratio was at most 0.25. Take ATIT: the enrichment ratio came to 4.62. With LGAQ the figure was at most 0.25. With EVYP, the enrichment ratio was at most 0.25.

Regarding RSKY, the enrichment ratio is at most 0.25. With KGCL the figure was at most 0.25; with QTRL, at most 0.25; with THIC, at most 0.25. Consider RHYL, for which the enrichment ratio is at most 0.25. The value for QYWK was at most 0.25. Take YQYH: the enrichment ratio is at most 0.25. IWWD: the enrichment ratio is at most 0.25. For YPWG, the enrichment ratio was at most 0.25. With SLWV the figure was at most 0.25; with DANK, at most 0.25; with WIIP, at most 0.25.

Turning to CRSS, the enrichment ratio is at most 0.25. As to NFCC, the enrichment ratio was at most 0.25.

In the case of FHFS, the enrichment ratio was at most 0.25.

Regarding RVAC, the enrichment ratio was at most 0.25. The value for PDVP was at most 0.25; that for TRVQ was at most 0.25; that for PLFM was at most 0.25. With ESWF the figure was at most 0.25; with DLIM, at most 0.25. For the variant MFRQ, the enrichment ratio is at most 0.25.

Take DFFW: the enrichment ratio is at most 0.25.

For EQAN, the enrichment ratio was at most 0.25. With MGKD the figure was at most 0.25; with PFSH, at most 0.25. On to MLYW, for which the enrichment ratio is at most 0.25.

For KQWA, the enrichment ratio is at most 0.25. With FIFP the figure was at most 0.25; with LNPF, at most 0.25. With MQAW the figure was at most 0.25; with WNTS, at most 0.25; with FNGK, at most 0.25. Turning to WGTM, the enrichment ratio was at most 0.25. As to PPVY, the enrichment ratio is at most 0.25. As for IVQF, the enrichment ratio is at most 0.25. Consider FTNM, for which the enrichment ratio was at most 0.25. Consider IQHE, for which the enrichment ratio is at most 0.25. The value for GYGD was at most 0.25; that for ISQT was at most 0.25. As for TDVE, the enrichment ratio was at most 0.25.

With MSPM, the enrichment ratio is at most 0.25. As for TVFE, the enrichment ratio was at most 0.25. With HANK the figure was at most 0.25; with DYMK, at most 0.25. Take GTVH: the enrichment ratio is at most 0.25.
